Key:
[1] = system: influenza virus A/PR/8/34 (PR8); settings: daily for five days beginning two days after influenza infection; cited from earlier work
[2] = system: influenza virus A/PR/8/34 (PR8); assay: Influenza infection lethality model; assay type: in vivo; settings: 100 ug/mouse IP for 5 consecutive days from day 2; 14 days

Structure (SMILES) | reduction of mortality [1] | clinical scores of influenza-infected mice [2] | survival of influenza-infected mice [2]
NC(=O)[C@H](CCC(=O)O)NC(=O)[C@H](CO)NC(=O)[C@H](CO)NC(=O)[C@@H](N)Cc1ccccc1 [P5779] | approximately 9 fold | – | –
NC(=O)N(CCC(=O)O)NC(=O)[C@H](CO)NC(=O)[C@H](CO)NC(=O)N(N)Cc1ccccc1 [K883] | – | lowered clinical scores | significant survival
